This is one part of the list.
Columns and labels:
[1] = tested on: HSkMC (human skeletal muscle cells); experiment: cytotoxicity call (relative viability < 0.9); settings: 10 µM
[2] = tested on: HepG2; experiment: cytotoxicity call (relative viability < 0.9); settings: 10 µM
[3] = tested on: S. aureus RN4220; experiment: growth inhibition call (relative growth <= 0.2); settings: 50 µM

CO[C@H]1CN(C)C(=O)c2ccc(NC(=O)C3CC3)cc2OC[C@@H](C)N(C(=O)C2CCOCC2)C[C@@H]1C
inactive: cytotoxicity call [1] | cytotoxicity call [2] | growth inhibition call [3]

Cc1ccc(S(=O)(=O)N(C)C[C@@H]2OCCCC[C@@H](C)Oc3ccc(NC(=O)Nc4ccccc4)cc3C(=O)N([C@H](C)CO)C[C@@H]2C)cc1
inactive: cytotoxicity call [1] | cytotoxicity call [2] | growth inhibition call [3]

COc1cccc(C#Cc2ccc([C@H]3[C@@H](CO)N4C(=O)CN(S(=O)(=O)c5ccccc5C)C[C@@H]34)cc2)c1
inactive: cytotoxicity call [1] | cytotoxicity call [2] | growth inhibition call [3]

NCC[C@H]1CC[C@@H](NC(=O)Cc2ccncc2)[C@@H](CO)O1
inactive: cytotoxicity call [1] | cytotoxicity call [2] | growth inhibition call [3]

C[C@@H]1CN([C@@H](C)CO)S(=O)(=O)c2ccc(C#Cc3ccccc3F)cc2O[C@@H]1CN(C)C(=O)Cc1ccncc1
inactive: cytotoxicity call [1] | cytotoxicity call [2] | growth inhibition call [3]

C[C@@H]1CN([C@H](C)CO)C(=O)c2cc(C#Cc3ccccc3F)cnc2O[C@H]1CN(C)C(=O)Cc1cccnc1
inactive: cytotoxicity call [1] | cytotoxicity call [2] | growth inhibition call [3]

C[C@H]1CN([C@@H](C)CO)C(=O)c2cccc(NC(=O)C3CCOCC3)c2O[C@H]1CN(C)Cc1ccccc1
inactive: cytotoxicity call [1] | cytotoxicity call [2] | growth inhibition call [3]

C[C@@H]1CCCCO[C@@H](CN(C)C(=O)Nc2ccccc2)[C@@H](C)CN([C@@H](C)CO)C(=O)c2cc(NC(=O)Nc3cccc4ccccc34)ccc2O1
inactive: cytotoxicity call [1] | cytotoxicity call [2] | growth inhibition call [3]

N[C@@H](c1ccncc1)c1ccc(Cl)cc1
inactive: cytotoxicity call [1] | cytotoxicity call [2] | growth inhibition call [3]

Cc1cc(C(=O)Nc2cccc3c2O[C@@H](CN(C)S(=O)(=O)c2ccc(F)cc2)[C@@H](C)CN([C@H](C)CO)C3=O)n(C)n1
inactive: cytotoxicity call [1] | cytotoxicity call [2] | growth inhibition call [3]

Cc1ccc(S(=O)(=O)N(C)C[C@H]2Oc3c(NC(=O)NC(C)C)cccc3C(=O)N([C@H](C)CO)C[C@@H]2C)cc1
inactive: cytotoxicity call [1] | cytotoxicity call [2] | growth inhibition call [3]

C[C@@H]1CCCCO[C@H](CN(C)C(=O)c2ccccc2)[C@@H](C)CN([C@@H](C)CO)C(=O)c2cc(NC(=O)CCC(F)(F)F)ccc2O1
inactive: cytotoxicity call [1] | cytotoxicity call [2] | growth inhibition call [3]

C[C@H](CO)N1C[C@H](C)[C@H](CN(C)CC2CC2)OCCCC[C@H](C)Oc2ccc(NC(=O)c3ccccc3)cc2C1=O
inactive: cytotoxicity call [1] | cytotoxicity call [2] | growth inhibition call [3]

CC(=O)c1ccc(S(=O)(=O)NC(=O)NC2CCCCC2)cc1
inactive: cytotoxicity call [1] | cytotoxicity call [2] | growth inhibition call [3]

CC(C)NC(=O)N(C)C[C@H]1Oc2ccc(NC(=O)NC3CCCCC3)cc2CC(=O)N([C@H](C)CO)C[C@@H]1C
inactive: cytotoxicity call [1] | cytotoxicity call [2] | growth inhibition call [3]

CC(C)NC(=O)Nc1ccc2c(c1)C(=O)N([C@@H](C)CO)C[C@@H](C)[C@H](CN(C)Cc1ccc(Cl)c(Cl)c1)OCCCC[C@@H](C)O2
inactive: cytotoxicity call [1] | cytotoxicity call [2] | growth inhibition call [3]

Cc1n[nH]c(=O)n1-c1cccc(C(=O)O)c1
inactive: cytotoxicity call [1] | cytotoxicity call [2] | growth inhibition call [3]
